From patent US10544092B2 (priority 2015, dated 2020)

Columns and labels:
[1] = tested on: bacterial leaf spot of tomato; type: in vivo; settings: dosage 400 mg/L, 10 days
[2] = tested on: bacterial leaf spot of cucumber; settings: in vivo
bacterial blight of rice = type: in vivo; settings: dosage 600 mg/L, 10 days
[3] = tested on: bacterial leaf streak of rice; type: in vivo, Xanthomonas oryzae pv. oryzicola; settings: dosage 600 mg/L, 10 days

N#CC(C#N)=NOCc1cccc(C#N)c1 [Compound 36]
100%: control against bacterial leaf spot of tomato [1]

N#CC(C#N)=NOCc1cccc(Br)c1 [Compound 9]
100%: control against bacterial leaf spot of cucumber [2] | control against bacterial blight of rice (bacterial blight of rice) | control against bacterial leaf spot of tomato [1] | control against bacterial leaf streak of rice [3]

N#CC(C#N)=NOCc1ccc([N+](=O)[O-])cc1 [Compound 34]
100%: control against bacterial leaf spot of cucumber [2] | control against bacterial blight of rice (bacterial blight of rice) | control against bacterial leaf spot of tomato [1] | control against bacterial leaf streak of rice [3]

COc1ccc(CON=C(C#N)C#N)cc1 [Compound 19]
100%: control against bacterial leaf spot of cucumber [2] | control against bacterial blight of rice (bacterial blight of rice) | control against bacterial leaf spot of tomato [1] | control against bacterial leaf streak of rice [3]

N#CC(C#N)=NOCc1ccc(C#N)cc1 [Compound 37]
100%: control against bacterial leaf spot of cucumber [2] | control against bacterial blight of rice (bacterial blight of rice) | control against bacterial leaf spot of tomato [1] | control against bacterial leaf streak of rice [3]

N#CC(C#N)=NOCc1ccc(Cl)c(Cl)c1 [Compound 59]
100%: control against bacterial leaf spot of cucumber [2] | control against bacterial blight of rice (bacterial blight of rice) | control against bacterial leaf spot of tomato [1] | control against bacterial leaf streak of rice [3]

N#CC(C#N)=NOCc1ccc(F)c(F)c1 [Compound 83]
100%: control against bacterial leaf spot of cucumber [2] | control against bacterial blight of rice (bacterial blight of rice) | control against bacterial leaf spot of tomato [1] | control against bacterial leaf streak of rice [3]
